Molecular target: T1, NRP1 (residues 22–644), extracellular a1a2b1b2 domain of human NRP1 (human, UniProt O14786 22-644)
T1 construct: neuropilin-1, human, residues 22-644, extracellular a1a2b1b2 domains; also called recombinant NRP1; neuropilin-1
T1 sequence (looked up): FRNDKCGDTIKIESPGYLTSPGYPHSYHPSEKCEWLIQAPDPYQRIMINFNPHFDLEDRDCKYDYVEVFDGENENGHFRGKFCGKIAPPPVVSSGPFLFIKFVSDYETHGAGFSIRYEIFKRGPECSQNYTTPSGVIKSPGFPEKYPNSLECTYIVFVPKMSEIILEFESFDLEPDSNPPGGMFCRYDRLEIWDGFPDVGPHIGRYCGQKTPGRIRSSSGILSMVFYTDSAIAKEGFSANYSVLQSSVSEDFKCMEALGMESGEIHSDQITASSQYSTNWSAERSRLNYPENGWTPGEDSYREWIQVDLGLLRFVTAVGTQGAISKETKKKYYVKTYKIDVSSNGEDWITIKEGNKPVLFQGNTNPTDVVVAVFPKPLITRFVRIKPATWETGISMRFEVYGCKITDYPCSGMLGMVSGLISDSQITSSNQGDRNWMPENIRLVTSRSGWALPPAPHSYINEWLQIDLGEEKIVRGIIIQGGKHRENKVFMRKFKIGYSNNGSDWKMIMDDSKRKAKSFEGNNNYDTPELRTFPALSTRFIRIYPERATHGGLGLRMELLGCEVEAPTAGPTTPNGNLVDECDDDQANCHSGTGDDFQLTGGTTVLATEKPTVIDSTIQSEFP
Assay: MST; fluorescent human βNGF with NRP1 (residues 22–644) or staphylokinase; conditions only in the Supplemental Methods
Conditions: both partners purified

B1: fluorescent human βNGF (ligand)
chain: not shown
modifications: fluorescent label (kind and site not stated)
notes: beta-nerve growth factor, human, mature βNGF; Also used for the functional rows, where the test system held mouse NGF; also called fluorescent human NGF; fluorescent NGF
  Kd: 35.5 ± 4.7 nM
